The other results are listed elsewhere or left out.
molecular target: T1, MBP-FoxP1dN (Mus musculus, UniProt P58462 326-579); assay: PD-seq (MBP pull-down with sequencing); 20 mM Tris-HCl pH 7.5, 100 mM NaCl, 1.5 mM MgCl2, 0.4 uM protein, 0.1 uM dsDNA library, 30 min, room temperature, amylose pull-down; high values mean tight binding; details: protein: recombinant; tags: His6-MBP; chain copies: 2; dsDNA, one strand shown
T1 sequence: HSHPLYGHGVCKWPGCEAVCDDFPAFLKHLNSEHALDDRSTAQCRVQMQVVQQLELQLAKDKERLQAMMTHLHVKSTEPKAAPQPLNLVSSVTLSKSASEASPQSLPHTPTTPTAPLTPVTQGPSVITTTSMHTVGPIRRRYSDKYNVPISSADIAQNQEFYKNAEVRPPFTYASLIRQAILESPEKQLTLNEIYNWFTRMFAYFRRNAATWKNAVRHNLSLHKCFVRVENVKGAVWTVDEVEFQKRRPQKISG
How it was run: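 A degenerate double-stranded DNA library, filled in with Klenow, was added at 0.1 µM to 0.4 µM His6-MBP-tagged mouse FoxP3 or FoxP1 fragment lacking the N-terminus, expressed in E. coli. Incubation lasted 30 min at room temperature in Tris pH 7.5 buffer with NaCl and MgCl2, after which complexes were collected on amylose resin, washed three times, digested with proteinase K to free the DNA, barcoded by PCR and sequenced by Illumina. Binding is the pooled-replicate reads-per-million enrichment of pull-down over input.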

In order of falling binding signal:
1. GATGATTGTTCTCCCAGCTGATGAATTGTTTGCGTCGAGTAAACAAATTTTCCTAATCTTTCTGTTCAAGCGCCATCTAC  2.27 RPM ratio (pull-down/input)
2. GATGATTGTTCTCCCAGCTGATGAATTCAATGTTTCGAGTAAACAAATTTTCCTAATCTTTCTGTTCAAGCGCCATCTAC  1.16 RPM ratio (pull-down/input)
3. GATGATTGTTCTCCCAGCTGATGAATTGCACTCCTCGAGTAAACAAATTTTCCTAATCTTTCTGTTCAAGCGCCATCTAC  1.15 RPM ratio (pull-down/input)
4. GATGATTGTTCTCCCAGCTGATGAATTTAATGCTTCGAGTAAACAAATTTTCCTAATCTTTCTGTTCAAGCGCCATCTAC  1.05 RPM ratio (pull-down/input)
5. GATGATTGTTCTCCCAGCTGATGAATTTAGGGTTTCGAGTAAACAAATTTTCCTAATCTTTCTGTTCAAGCGCCATCTAC  1.04 RPM ratio (pull-down/input)
6. GATGATTGTTCTCCCAGCTGATGAATTTTGTGACTCGAGTAAACAAATTTTCCTAATCTTTCTGTTCAAGCGCCATCTAC  1.03 RPM ratio (pull-down/input)
7. GATGATTGTTCTCCCAGCTGATGAATTAGACACGTCGAGTAAACAAATTTTCCTAATCTTTCTGTTCAAGCGCCATCTAC  0.986 RPM ratio (pull-down/input)
8. GATGATTGTTCTCCCAGCTGATGAATTGTCGCGCTCGAGTAAACAAATTTTCCTAATCTTTCTGTTCAAGCGCCATCTAC  0.966 RPM ratio (pull-down/input)
9. GATGATTGTTCTCCCAGCTGATGAATTTTGTGGGTCGAGTAAACAAATTTTCCTAATCTTTCTGTTCAAGCGCCATCTAC  0.945 RPM ratio (pull-down/input)
10. GATGATTGTTCTCCCAGCTGATGAATTACCCGCCTCGAGTAAACAAATTTTCCTAATCTTTCTGTTCAAGCGCCATCTAC  0.938 RPM ratio (pull-down/input)
11. GATGATTGTTCTCCCAGCTGATGAATTTTTCTACTCGAGTAAACAAATTTTCCTAATCTTTCTGTTCAAGCGCCATCTAC  0.938 RPM ratio (pull-down/input)
12. GATGATTGTTCTCCCAGCTGATGAATTAGGTATTTCGAGTAAACAAATTTTCCTAATCTTTCTGTTCAAGCGCCATCTAC  0.936 RPM ratio (pull-down/input)
13. GATGATTGTTCTCCCAGCTGATGAATTGAATCACTCGAGTAAACAAATTTTCCTAATCTTTCTGTTCAAGCGCCATCTAC  0.936 RPM ratio (pull-down/input)
14. GATGATTGTTCTCCCAGCTGATGAATTAGTGCGCTCGAGTAAACAAATTTTCCTAATCTTTCTGTTCAAGCGCCATCTAC  0.918 RPM ratio (pull-down/input)
15. GATGATTGTTCTCCCAGCTGATGAATTCCGTATCTCGAGTAAACAAATTTTCCTAATCTTTCTGTTCAAGCGCCATCTAC  0.916 RPM ratio (pull-down/input)
16. GATGATTGTTCTCCCAGCTGATGAATTCTCCCGCTCGAGTAAACAAATTTTCCTAATCTTTCTGTTCAAGCGCCATCTAC  0.901 RPM ratio (pull-down/input)
17. GATGATTGTTCTCCCAGCTGATGAATTGCCCTCCTCGAGTAAACAAATTTTCCTAATCTTTCTGTTCAAGCGCCATCTAC  0.899 RPM ratio (pull-down/input)
18. GATGATTGTTCTCCCAGCTGATGAATTCGAGGTATCGAGTAAACAAATTTTCCTAATCTTTCTGTTCAAGCGCCATCTAC  0.884 RPM ratio (pull-down/input)
19. GATGATTGTTCTCCCAGCTGATGAATTCACATTCTCGAGTAAACAAATTTTCCTAATCTTTCTGTTCAAGCGCCATCTAC  0.877 RPM ratio (pull-down/input)
20. GATGATTGTTCTCCCAGCTGATGAATTAGACGATTCGAGTAAACAAATTTTCCTAATCTTTCTGTTCAAGCGCCATCTAC  0.874 RPM ratio (pull-down/input)
21. GATGATTGTTCTCCCAGCTGATGAATTCCTAAGATCGAGTAAACAAATTTTCCTAATCTTTCTGTTCAAGCGCCATCTAC  0.868 RPM ratio (pull-down/input)
22. GATGATTGTTCTCCCAGCTGATGAATTCGACGGTTCGAGTAAACAAATTTTCCTAATCTTTCTGTTCAAGCGCCATCTAC  0.863 RPM ratio (pull-down/input)
23. GATGATTGTTCTCCCAGCTGATGAATTGCCAGGTTCGAGTAAACAAATTTTCCTAATCTTTCTGTTCAAGCGCCATCTAC  0.861 RPM ratio (pull-down/input)
24. GATGATTGTTCTCCCAGCTGATGAATTTCTAAGCTCGAGTAAACAAATTTTCCTAATCTTTCTGTTCAAGCGCCATCTAC  0.86 RPM ratio (pull-down/input)
25. GATGATTGTTCTCCCAGCTGATGAATTGATAGGCTCGAGTAAACAAATTTTCCTAATCTTTCTGTTCAAGCGCCATCTAC  0.858 RPM ratio (pull-down/input)
26. GATGATTGTTCTCCCAGCTGATGAATTAGGGGCTTCGAGTAAACAAATTTTCCTAATCTTTCTGTTCAAGCGCCATCTAC  0.857 RPM ratio (pull-down/input)
27. GATGATTGTTCTCCCAGCTGATGAATTTGGAGCCTCGAGTAAACAAATTTTCCTAATCTTTCTGTTCAAGCGCCATCTAC  0.853 RPM ratio (pull-down/input)
28. GATGATTGTTCTCCCAGCTGATGAATTCTCAGGCTCGAGTAAACAAATTTTCCTAATCTTTCTGTTCAAGCGCCATCTAC  0.852 RPM ratio (pull-down/input)
29. GATGATTGTTCTCCCAGCTGATGAATTTGGAGGATCGAGTAAACAAATTTTCCTAATCTTTCTGTTCAAGCGCCATCTAC  0.84 RPM ratio (pull-down/input)
30. GATGATTGTTCTCCCAGCTGATGAATTCATACGGTCGAGTAAACAAATTTTCCTAATCTTTCTGTTCAAGCGCCATCTAC  0.84 RPM ratio (pull-down/input)
31. GATGATTGTTCTCCCAGCTGATGAATTCAGGTGATCGAGTAAACAAATTTTCCTAATCTTTCTGTTCAAGCGCCATCTAC  0.833 RPM ratio (pull-down/input)
32. GATGATTGTTCTCCCAGCTGATGAATTCTCAGAGTCGAGTAAACAAATTTTCCTAATCTTTCTGTTCAAGCGCCATCTAC  0.765 RPM ratio (pull-down/input)

Reference: paper PMC12820563, “FoxP3 forms a head-to-head dimer in vivo and stabilizes its multimerization on adjacent microsatellites”
